± gives the standard deviation of the averaged measurements. The list shows a part of the results.
test system: PfAP2-LT AP2 domain (GST-tagged); test: gcPBM binding intensity (ln(normalized median fluorescence intensity)); higher = stronger DNA binding
Summary of the method: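 The highest Masliner-normalised natural-log median intensity across replicate spots of either probe orientation is reported as binding intensity. GST-tagged P. falciparum DNA-binding domains expressed in E. coli were applied for 1 h to an Agilent 4 × 180k array of primer-extended double-stranded 36-bp intergenic genomic probes plus negative controls, and bound protein was detected with Alexa488 anti-GST antibody and scanned at 488 nm.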

Sequence	gcPBM binding intensity (ln)
TTTTTTACTTTTGAGACATTTCATATTTTTATTCAC [GTGCAC_negctrl_site730]	8.72 ± 0.49
AAAGGTTCACATTATATAGTTATGTAATATATATGT [CACACA_negctrl_site542]	8.77 ± 0.4
TTTTTTCTCTGTGGCTGTACTTTGAAGATATTTTAT [XGTACX_site8243]	8.87 ± 0.47
ATATTGTATTTATGTACACACATTTTTGGAATATGA [CACACA_site4861]	9.07 ± 0.3
TCTTTTAAACAGTACACACACACATCTATATTTATA [CACACA_site6559]	9.41 ± 0.31
CTCTGTTGTCTTAGTTGTACAATAGAAAAAAATAAT [XGTACX_site7043]	8.65 ± 0.38
ATATATATATATATATGTACATATTGTATTAATTAT [XGTACX_site1919]	9.67 ± 0.014
TTTTCATATTATAGTGCACACAAAAATATATATATG [CACACA_site8929]	8.91 ± 0.41
TTATTTAGTATATTATGTACATACAATGCCTGGGAA [XGTACX_site4578]	8.69 ± 0.33
TAAAATATATATATGTGTACATAACATATAATTTTT [XGTACX_site1725]	8.6 ± 0.46
ATATGTTACAGACACACACACACATAAAAAAACAAA [CACACA_site3248]	9.96 ± 0.28
AGTATAAAAATATATTTACACACTATATATATCGAA [CACACA_site8494]	8.81 ± 0.4
TATTGTTGTTCATGTACACACTATAATAAAAGCAAT [CACACA_site6148]	8.93 ± 0.42
AGGTACTTTTTTAAAACACACATATAACATATACAC [CACACA_site6629]	8.88 ± 0.4
ACCCCCAATACGGAAACACACAAGTTATTTTATCAT [CACACA_site8874]	9.6 ± 0.21
AATAATCTATATTGTACACACAAAATGGGAAAAAAA [CACACA_site6969]	9 ± 0.47
AATTAGATTTACTGAAGTACTTAATTTATTTTATTA [XGTACX_site3407]	8.77 ± 0.47
ATATATTTATATATTACACACAATATTGTACAGATA [CACACA_site8215]	9.01 ± 0.4
GAAGGAATATACAATTGTACTTGGCAAAAAAAAAAA [XGTACX_site1884]	8.78 ± 0.54
AAAAAAGGAAAAGATACACACCGTAAATTAAAATTT [CACACA_site5908]	9.06 ± 0.43
GTTAAGAATATATAATGTACTTATTTTAATATAGTA [XGTACX_site6088]	8.46 ± 0.49
AAATACTTGTCATATTGTACATGTTTGTGATATATA [XGTACX_site3185]	8.85 ± 0.3

Sequence	gcPBM binding intensity (ln)
ATAATTTGGAAACACACACACACACCCACATATATA [CACACA_site2286]	10.28 ± 0.064
TGTTTATTTTTAAAAAGTACATATATAAAAAATATC [XGTACX_site4902]	8.35 ± 0.32
TTAAATGAAAAATGGGGTACATATATACAAATATAT [XGTACX_site5931]	8.72 ± 0.45
AAAAAAAAATACTACTGTACTTTTTTTGGACATCTA [XGTACX_site1096]	8.4 ± 0.49
TGATTATACGCACGCGCACACACAACCAAAAAAAAA [CACACA_site3537]	9.4 ± 0.38
AAAAAAAAAGATCACACACACATAAATATAAACAAA [CACACA_site5285]	9.72 ± 0.22
TGATATTATTATAAGGTGCTTAAAAATAAAGATAAT [GTGCAC_site9539]	8.62 ± 0.45
AAAAAAAAAAAAAAAAAAAAAAAAAAAAGTTAAAAA [TGCATGCA_negctrl_site74]	8.43 ± 0.3
AAAATTAAAATAGTAATACACACTTCATAGGAAATG [CACACA_site1762]	8.79 ± 0.39
AACAAGAAATAATCACGTACACATTATAATAACTAA [XGTACX_site8184]	9.02 ± 0.41
CTTTAATATTTTATTTCACACACATAAATGCCCCAA [CACACA_site8569]	9.11 ± 0.48
TAAAATATTGTTATTACATGCAACCTTATGAAAAAT [TGCATGCA_site706]	8.53 ± 0.28
ATATAAAATAATAAGGGTACAGGTCTCTGCGATGTT [XGTACX_site786]	8.88 ± 0.38
AGAATTTTAGATTTAGCACACATTTTTTTTTTTTTT [CACACA_site4081]	8.71 ± 0.47
ACTCGCATATTTAAATGTACTTAATTAGAAGAAAAA [XGTACX_site3304]	8.47 ± 0.42
GGATTTATTTTATATACACACATACCTATATTTATA [CACACA_site7084]	9.06 ± 0.39
ACTTTAATAATTCACTTATTTTCTTATTATATTATT [CACACA_negctrl_site556]	8.92 ± 0.47
TTTTTAACTAACATATCAATTCCATACGTCGTCAAA [CACACA_negctrl_site560]	8.41 ± 0.69
AATAGTGTATAAATTTGTACATATAATTAAAAGGAA [XGTACX_site1143]	8.81 ± 0.47
AACTTGTGTGGATATTGTACTAACAATATGTATGAT [XGTACX_site6302]	9.1 ± 0.39
AATAACTTTTTGAGATGTACATTTTTAATTCGTAGA [XGTACX_site8455]	8.46 ± 0.34
TTATTCGAACAAAGGAAAAAATATATTCAAAGGAAA [TGCATGCA_negctrl_site215]	8.51 ± 0.59

Sequence	gcPBM binding intensity (ln)
ATTCATAAAAAGAGGTGTACATTAATATAATATATA [XGTACX_site8283]	8.7 ± 0.43
AAAACAAAAATATAAACACACATACATTGGTTTTCT [CACACA_site5405]	8.96 ± 0.48
TCTATATAATACCAATGTACATAGTTTTAAGCATAA [XGTACX_site1889]	8.62 ± 0.44
AGGATATGCAGACACACACACATATAGATTTATATA [CACACA_site7100]	9.56 ± 0.43
ATAAATTGTAAAATGTGTACGCAGATATTGCGTATT [XGTACX_site332]	8.81 ± 0.35
TTTTGTCTTCAAATCAAATGTATATAAAAAAAATAC [CACACA_negctrl_site1717]	8.31 ± 0.34
TTTAAAAATTTGATCAAACACACGTTGCATAAATTA [CACACA_site3945]	8.57 ± 0.38
ATAAGCATCTGGATATGTACTTATTCCTTTAAAGAT [XGTACX_site6225]	8.77 ± 0.37
AAAAGTATATATTCAGTGCATAGTCTTTAAATATAA [GTGCAC_site9522]	8.7 ± 0.38
TATATATAACATTGTACACACAAAGAAATAATATTA [CACACA_site3035]	9 ± 0.45
ATAAAAAAGCAACATCATATGTTTTTATAGAGTATT [CACACA_negctrl_site745]	8.65 ± 0.41
TATTAAAAATATTATGTACACACATTTTAGATATTT [CACACA_site8549]	8.79 ± 0.51
AACAAGTTGCATGGTGCACACATGTATTTATATCTA [CACACA_site5414]	9.14 ± 0.46
AAATTAATGAAATATACACACATATATAAATATATA [CACACA_site4378]	8.9 ± 0.42
AAATTTTTTAATTTTTCTCATTTAATTTAAAAATTA [GTGCAC_negctrl_site155]	8.09 ± 0.41
AAATTAAAGATAAAAGTGCAAAATTATAAATTTATT	8.79 ± 0.49
TATGCTACATTATATGTACACACATATACATATATA [CACACA_site8199]	9.11 ± 0.42
ATTTATACGTAATATGCATAAATATAAATATATATA [XGTACX_negctrl_site133]	8.74 ± 0.35
TTAAAATTTTAAAAATTTTAATTTTACAAAAAAAAT [TGCATGCA_negctrl_site227]	7.92 ± 0.48
TTTCTTTCTTTCTTTTTTTAAATATTTTTTAAAAAT [TGCATGCA_negctrl_site206]	8.21 ± 0.55
ATATAAATAAAAAAAAAAAAAAAAAAAAAAAAAAAA [CACACA_negctrl_site972]	8.12 ± 0.3
ATCATCTTTATTCAAGTGCACTGAAAATTTTTTATA [GTGCAC_site9801]	8.71 ± 0.38

Sequence	gcPBM binding intensity (ln)
ATATAAGTGTATCTAACACACAAATATATAAAAATG [CACACA_site1956]	9.03 ± 0.38
ATAATTATATGGCTAGCACACAATAAATAATTATAT [CACACA_site3815]	9 ± 0.45
ACAAGTTAAAATATTACACACATATAAATATTTATA [CACACA_site7467]	8.81 ± 0.43
AAGAAAAATATTCGTGTGCACAGAAGTATATGTGTG [GTGCAC_site9814]	9.36 ± 0.44
TATTGTAAGAAAGGCACACAGATAAAATTATTATAT [CACACA_site2921]	8.83 ± 0.51
ATTTTTGTAAATACATGTACATATATATGCATATCC [XGTACX_site6353]	9.14 ± 0.53
TTTCGCTTTATTTATGCATGCAAATAAGTTGATATT [TGCATGCA_site724]	8.84 ± 0.22
TACATATATACATACACACACATATAACCAATGTAG [CACACA_site2192]	9.55 ± 0.23
AGTAATAGTTTGTGCACACTCAAGTATATCATAGAT [CACACA_site6082]	9.24 ± 0.29
TTTTCAATATATAGAGCATGCGCATCCACAAATATG [TGCATGCA_site380]	8.77 ± 0.45
TGCCAATTTTTAAAAACATGCATTATATAGAATAAA [TGCATGCA_site872]	8.38 ± 0.42
AATGGAAAATTATTAACACACACATATAAATATATA [CACACA_site7899]	9.27 ± 0.34
ATTAAAAGGGGGTTTACATGTGTGTGTGTAATATGG [TGCATGCA_negctrl_site293]	9.91 ± 0.15
TACAACAATTTTTGCACACACCAAAACATAAAATAA [CACACA_site4964]	9.26 ± 0.36
ATATTTCATCTAGCTACACACATATAATAAATTATT [CACACA_site4094]	9 ± 0.44
TTTTGATTGTTATTCGTATATTATTTTATGATTATA [CACACA_negctrl_site1593]	8.74 ± 0.47
CAAAATATTTTTATAACACACATATTTATAACGTGC [CACACA_site6659]	8.88 ± 0.36
AATAATCATTTTCATAGTACGTATGATTAGAAAAAA [XGTACX_site2589]	8.63 ± 0.47
TTATACATTTGTAAATAAATAGAACTGTATTTTTTT [TGCATGCA_negctrl_site397]	8.29 ± 0.46
TATATACCGATATATACACACAAATACATAAGCTTC [CACACA_site6760]	9.18 ± 0.36
AATATAAACAGACACACACACATATAGATTTATATT [CACACA_site7382]	9.87 ± 0.35

Source: the supplement of paper PMC11417369
